# Measurements reported in the supplement of paper PMC12217912.
# The other results are listed elsewhere or left out. The full chains were built here from the parent and the listed change. Inactive controls read about 0.05.
# B1: TEV protease; numbered along this chain (parent)
# chain: MGESLFKGPRDYNPISSSICHLTNESDGHTTSLYGIGFGPFIITNKHLFRRNNGTLVVQSLHGVFKVKDTTTLQQHLVDGRDMIIIRMPKDFPPFPQKLKFREPQREERICLVTTNFQTKSMSSMVSDTSCTFPSGDGIFWKHWIQTKDGQCGSPLVSTRDGFIVGIHSASNFTNTNNYFTSVPKNFMELLTNQEAQQWVSGWRLNADSVLWGGHKVFMVKPEEPFQPVKEATQL
# Variants of: B1
# Experiment: raw area under fraction-flipped curve 0-4 h after induction (AUC4h, not background-subtracted), DNA-recorder readout of cleavage of the substrate (dimensionless); higher = more cleavage of the substrate by the protease variant
# Conditions: temperature: 34 °C; time window: 0-4 h after rhamnose induction
# Experimental: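 In vivo DNA recorder in E. coli TOP10(DE3) ΔrhaA at 34 °C. Each TEVp single-site mutant (parent TEVp 0) is paired with a single-site variant of the 7-mer TEVs (canonical ENLYFQ|S). The substrate sits between flexible linkers in a Bxb1-sfGFP-TEVs-SsrA fusion, so cleavage stabilises Bxb1 and speeds flipping of a recombination array, read by NGS. The value is the raw area under the fraction-flipped curve over 0-4 h after rhamnose induction (AUC4h), with ≥20 reads per time point. It is not background-subtracted; inactive controls average about 0.047.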
# 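Further: Bxb1 expression induced with 0.2% (w/v) L-rhamnose at OD600 near 0.5, cultures sampled hourly, flipped fraction per protease–substrate barcode pair counted by paired-end Illumina sequencing.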
Variant,area with substrate ENAYFQS,area with substrate ENCYFQS,area with substrate ENDYFQS,area with substrate ENEYFQS,area with substrate ENFYFQS,area with substrate ENGYFQS,area with substrate ENHYFQS,area with substrate ENIYFQS,area with substrate ENNYFQS,area with substrate ENPYFQS,area with substrate ENQYFQS,area with substrate ENRYFQS,area with substrate ENSYFQS,area with substrate ENTYFQS,area with substrate ENVYFQS,area with substrate ENYYFQS,area with substrate ENKYFQS,area with substrate ENWYFQS,area with substrate ENMYFQS
MGESLFKGPRDYNPISSSICHLTNESDGHTTSLYGIGFGPFIITNKHLFRRNNGTLVVQSLHGVFKVKDTTTLQQHLVDGRDMIIIRMPKDFPPFPQKLKFREPQREERICLVTTNFQTKSMSSMVSDTSCTFPSGDGIRWKHWIQTKDGQCGSPLVSTRDGFIVGIHSASNFTNTNNYFTSVPKNFMELLTNQEAQQWVSGWRLNADSVLWGGHKVFMVKPEEPFQPVKEATQL [F140R],0.0606,0.0606,0.0681,0.0543,0.0592,0.0534,0.0586,0.0701,0.0668,0.0695,0.0638,0.0556,0.0678,0.0622,0.0649,0.0688,–,–,–
MGESLFKGPRDYNPISSSICHLTNESDGHTTSLYGIGFGPFIITNKHLFRRNNGTLVVQSLHGVFKVKDTTTLQQHLVDGRDMIIIRMPKDFPPFPQKLKFREPQREERICLVTTNFQTKSMSSMVSDTSCTFPSGDGIFWKHCIQTKDGQCGSPLVSTRDGFIVGIHSASNFTNTNNYFTSVPKNFMELLTNQEAQQWVSGWRLNADSVLWGGHKVFMVKPEEPFQPVKEATQL [W144C],0.0538,–,0.0866,0.0649,0.0392,0.0773,0.0561,0.0863,0.0664,0.0604,0.0634,0.0524,0.081,–,0.0817,–,0.0594,–,–
MGESLFKGPRDYNPISSSICHLTNESDGHTTSLYGIGFGPFIITNKHLFRRNNGTLVVQSLHGVFKVKDTTTLQQHLVDGRDMIIIRMPKDFPPFPQKLKFREPQREERICLVTTNFQTKSMSSMVSDTSCTFPSRDGIFWKHWIQTKDGQCGSPLVSTRDGFIVGIHSASNFTNTNNYFTSVPKNFMELLTNQEAQQWVSGWRLNADSVLWGGHKVFMVKPEEPFQPVKEATQL [G136R],0.0435,0.0666,0.063,0.0653,0.0604,0.0428,0.0611,0.0981,0.0644,0.0605,0.0584,0.0538,0.0593,–,0.0625,–,0.0665,0.0636,–
MGESLFKGPRDYNPISSSICHLTNESDGHTTSLYGIGFGPFIITNKHLFRRNNGTLVVQSLHGVFKVKDTTTLQQHLVDGRDMIIIRMPKDFPPFPQKLKFREPQREERICLVTTNFQTKSMSSMVSDTSCTFPSHDGIFWKHWIQTKDGQCGSPLVSTRDGFIVGIHSASNFTNTNNYFTSVPKNFMELLTNQEAQQWVSGWRLNADSVLWGGHKVFMVKPEEPFQPVKEATQL [G136H],0.0618,0.0836,0.0563,–,0.0532,–,0.0617,0.114,0.0467,0.064,0.0588,0.0459,0.0646,0.0668,–,0.0599,0.0711,0,0.0817
MGESLFKGPRDYNPISSSICHLTNESDGHTTSLYGIGFGPFIITNKHLFRRNNGTLVVQSLHGVFKVKDTTTLQQHLVDGRDMIIIRMPKDFPPFPQKLKFREPQREERICLVTTNFQTKSMSSMVSDTSCTFPSLDGIFWKHWIQTKDGQCGSPLVSTRDGFIVGIHSASNFTNTNNYFTSVPKNFMELLTNQEAQQWVSGWRLNADSVLWGGHKVFMVKPEEPFQPVKEATQL [G136L],0.0553,–,0.0687,0.0629,0.0474,0.0579,–,0.108,0.0708,–,0.0637,–,0.0724,–,0.0733,–,0.0566,0.0039,0.0721
MGESLFKGPRDYNPISSSICHLTNESDGHTTSLYGIGFGPFIITNKHLFRRNNGTLVVQSLHGVFKVKDTTTLQQHLVDGRDMIIIRMPKDFPPFPQKLKFREPQREERICLVTTNFQTKSMSSMVSDTSCTFPSNDGIFWKHWIQTKDGQCGSPLVSTRDGFIVGIHSASNFTNTNNYFTSVPKNFMELLTNQEAQQWVSGWRLNADSVLWGGHKVFMVKPEEPFQPVKEATQL [G136N],0.0659,0.0627,0.0705,0.0599,0.0458,–,0.07,–,0.0505,0.0616,0.0559,–,0.037,–,0.105,–,0.0595,0.0425,0.0979
MGESLFKGPRDYNPISSSICHLTNESDGHTTSLYGIGFGPFIITNKHLFRRNNGTLVVQSLHGVFKVKDTTTLQQHLVDGRDMIIIRMPKDFPPFPQKLKFREPQREERICLVTTNFQTKSMSSMVSDTSCTFPSTDGIFWKHWIQTKDGQCGSPLVSTRDGFIVGIHSASNFTNTNNYFTSVPKNFMELLTNQEAQQWVSGWRLNADSVLWGGHKVFMVKPEEPFQPVKEATQL [G136T],0.0474,0.0675,0.0616,0.0601,0.061,0.0517,0.0693,0.0746,–,0.0428,0.0403,0.0608,0.0601,0.0665,–,–,0.0606,0.0494,–
MGESLFKGPRDYNPISSSICHLTNESDGHTTSLYGIGFGPFIITNKHLFRRNNGTLVVQSLHGVFKVKDTTTLQQHLVDGRDMIIIRMPKDFPPFPQKLKFREPQREERICLVTTNFQTKSMSSMVSDTSCTFPSQDGIFWKHWIQTKDGQCGSPLVSTRDGFIVGIHSASNFTNTNNYFTSVPKNFMELLTNQEAQQWVSGWRLNADSVLWGGHKVFMVKPEEPFQPVKEATQL [G136Q],0.0799,0.0596,0.0575,0.0576,0.0669,0.0646,0.0205,0.125,0.056,0.0568,0.052,0.0606,0.0648,0.0654,0.0837,0.0589,0.0385,0.0485,0.0721
